Variants at the floor of the assay are shown more often than the library holds them.
B1: TPR 5TU (parent)
chain: GGAUCUUCUCGAUCUAACAAAAAAGACAAAUCUGCCACAAAGCUUGAGAGCAUCUUCGGAUGCAGAGGCGGCAGCCUUCGGUGGCGCGAUAGCGCCAACGUUCUCAACUAUGACACGCAAAACGCGUGCUCCGUUGAAUGGAGUUUAUCAUG

Variants of: B1
Assay: polymerase ribozyme fitness, log enrichment relative to wild type (log ratio); higher = more active; in vitro selection for triplet polymerase activity
Method in brief: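 A single round of triplicate in vitro selection, including frozen incubation at −7 °C, was applied to PCR-built, transcribed mutant libraries of each subunit of a heterodimeric triplet polymerase ribozyme. Illumina sequencing of input and output libraries retained genotypes with ≥10 input reads and ≥1 read per output. Fitness is the base-2 logarithm of genotype enrichment divided by wild-type enrichment, from inverse-variance-weighted replicate averages.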

| Variant | polymerase ribozyme fitness (log ratio) |
| --- | --- |
| C35U A41U C95U A113U G117C A150C | ≤ -4.2 |
| C35G U55G G67A G92U | ≤ -4.2 |
| C35U C76A G94C C105U | ≤ -4.2 |
| C35U C54G G68A C75G G84U C103A C108U A147U | ≤ -4.2 |
| C32U G117C U148C | ≤ -4.2 |
| C32U A49U | -4.14 |
| C35A A41C G68A C93G C108G A147G | ≤ -4.2 |
| C36A U45G C79G | ≤ -4.2 |
| C35U G86A C87G C132U | ≤ -4.2 |
| U33G G46A G94C C95U U135A | ≤ -4.2 |
| C35G G68A G128C G133A | ≤ -4.2 |
| C32G U53A G68U C76G U130A C132U G136A A142U | ≤ -4.2 |
| C36A U45A G46U G50C A52G A91G A98U | ≤ -4.2 |
| C35U U53A | -0.557 |
| C36G U44G A147C | ≤ -4.2 |
| C35A C54A C96U A107C | ≤ -4.2 |
| C35U A40G C51U G81C C87A | ≤ -4.2 |
| U33A G92A | ≤ -4.2 |
| G34C C35G G42A A66G C99G | ≤ -4.2 |
| C35U C75G U127C | ≤ -4.2 |
| U33C C36A U55A G83A A89G A142U U148C | ≤ -4.2 |

| Variant | polymerase ribozyme fitness (log ratio) |
| --- | --- |
| C36G A52C C116U U148A | ≤ -4.2 |
| U33A C43A A47C G94A C103A | ≤ -4.2 |
| U33G G59A G94U | -3.39 |
| U33A G92A A138C | ≤ -4.2 |
| C35G C76U C85U G141U U145G U151C | ≤ -4.2 |
| C36A C85A A106G A122U C129A | ≤ -4.2 |
| U33A G84U C116G C123G G133U | ≤ -4.2 |
| G34C C85G C105G A137G | ≤ -4.2 |
| C35U A40C G68A G70U C75G C76G U82C G94C C95A U102G G126U | ≤ -4.2 |
| C35A A89U U90G C99U U144G | ≤ -4.2 |
| C35G A37U G42C G58C G59C G86U U130G | ≤ -4.2 |
| C35G G46A C75G G94C C105G | ≤ -4.2 |
| C35G G50C U55G C96U A110G U145C | ≤ -4.2 |
| C35U G62C C75G C87G | ≤ -4.2 |
| G34A G74U G94A C116G | ≤ -4.2 |
| C36A U56G G141U | ≤ -4.2 |
| U33A G84A C95A A110G | ≤ -4.2 |
| G34U C76G C79U C96G A97U C103A A107U A120U U145A C149U | ≤ -4.2 |
| C35A U77C G83A A106C G126A U134G | ≤ -4.2 |
| C35A C75U G128U U144G | ≤ -4.2 |
| U33A A64G C105G | ≤ -4.2 |

| Variant | polymerase ribozyme fitness (log ratio) |
| --- | --- |
| C35U G58C G71A C93G | -3.09 |
| C36G G80A U101A A138G | ≤ -4.2 |
| G34U C51U G59U G88A G141U A142G U146G A147U | ≤ -4.2 |
| U33G G59A C75G G141C | ≤ -4.2 |
| U33C U55A A60U | ≤ -4.2 |
| C36A C76G C99U A107C A142C | ≤ -4.2 |
| C32U G81U G84A G94C | -3.46 |
| U33C A97U C125G | ≤ -4.2 |
| U33G A60G | -2.79 |
| U33C U56C G59C C79A C95U C123A | ≤ -4.2 |
| C36G G50A A89U | ≤ -4.2 |
| C35G C36A A52C U82G G86U A121G | ≤ -4.2 |
| C35A C57U C76G | ≤ -4.2 |
| C32G U55G C93A C103G | ≤ -4.2 |
| U33G C35U C43A C54A G68A G143A | ≤ -4.2 |
| C35G G48A A52G C57A G58A A60C A73C A91U C96U | ≤ -4.2 |
| U33G G74A C87G | ≤ -4.2 |
| C35U A66G C96G U104A U135A U146C C149G | ≤ -4.2 |
| C35A U56C U82A | -3.49 |
| U33C G81U C93G G143U | -4.06 |
| G34U U55G G84C G94A A97C C105U C149U | ≤ -4.2 |

| Variant | polymerase ribozyme fitness (log ratio) |
| --- | --- |
| C35U G42A A60U G67C A107G | ≤ -4.2 |
| U33G A41U G46C C54G G62C G70U C96A A120G G124U | ≤ -4.2 |
| U33C C76U C93A A97U C105G U146G | ≤ -4.2 |
| C35A U44A G70C C76U C103G U145G | ≤ -4.2 |
| U33C C63U C99U A142G | ≤ -4.2 |
| C32U C69G C72U G88C U135G | ≤ -4.2 |
| U33A C95U A142U G143U | -4.13 |
| C35A C75U C76G G86U C118A | ≤ -4.2 |
| C35U G88A A115C A119G | -3.86 |
| C35U G86C A137C | ≤ -4.2 |
| C35A G59U C85A C105U | ≤ -4.2 |
| C36A U56G C85A | ≤ -4.2 |
| U33G A52U | ≤ -4.2 |
| U33C C35G C51U A52G C103G | ≤ -4.2 |
| G34A C35G G50U G68C C76A | ≤ -4.2 |
| C36G C75G C95U C114G U135G A138G G140C | ≤ -4.2 |
| C36A G92C C116A G124U | ≤ -4.2 |
| G34C A41C U109C | ≤ -4.2 |
| U33C G70C A119C G124U U146G | ≤ -4.2 |
| C32U C75U G88A A115C | ≤ -4.2 |

Reference: the RNAGym collection of RNA variant scans (doi:10.1073/pnas.2313332121)
